Measurements reported in PMC4336329 (PLoS ONE, 2015).
Out of some 310,000 compounds screened, about 2,200 (0.71%) showed an effect of 50% or more. The effect is printed as a negative number. This is one part of the list.

What follows are compounds tested against human ether-à-go-go-related gene (hERG) potassium channel (human, UniProt Q12809) (assay: primary screen, population patch clamp on CHO cells stably expressing hERG).
Sequence of human ether-à-go-go-related gene (hERG) potassium channel (Q12809 whole entry, looked up): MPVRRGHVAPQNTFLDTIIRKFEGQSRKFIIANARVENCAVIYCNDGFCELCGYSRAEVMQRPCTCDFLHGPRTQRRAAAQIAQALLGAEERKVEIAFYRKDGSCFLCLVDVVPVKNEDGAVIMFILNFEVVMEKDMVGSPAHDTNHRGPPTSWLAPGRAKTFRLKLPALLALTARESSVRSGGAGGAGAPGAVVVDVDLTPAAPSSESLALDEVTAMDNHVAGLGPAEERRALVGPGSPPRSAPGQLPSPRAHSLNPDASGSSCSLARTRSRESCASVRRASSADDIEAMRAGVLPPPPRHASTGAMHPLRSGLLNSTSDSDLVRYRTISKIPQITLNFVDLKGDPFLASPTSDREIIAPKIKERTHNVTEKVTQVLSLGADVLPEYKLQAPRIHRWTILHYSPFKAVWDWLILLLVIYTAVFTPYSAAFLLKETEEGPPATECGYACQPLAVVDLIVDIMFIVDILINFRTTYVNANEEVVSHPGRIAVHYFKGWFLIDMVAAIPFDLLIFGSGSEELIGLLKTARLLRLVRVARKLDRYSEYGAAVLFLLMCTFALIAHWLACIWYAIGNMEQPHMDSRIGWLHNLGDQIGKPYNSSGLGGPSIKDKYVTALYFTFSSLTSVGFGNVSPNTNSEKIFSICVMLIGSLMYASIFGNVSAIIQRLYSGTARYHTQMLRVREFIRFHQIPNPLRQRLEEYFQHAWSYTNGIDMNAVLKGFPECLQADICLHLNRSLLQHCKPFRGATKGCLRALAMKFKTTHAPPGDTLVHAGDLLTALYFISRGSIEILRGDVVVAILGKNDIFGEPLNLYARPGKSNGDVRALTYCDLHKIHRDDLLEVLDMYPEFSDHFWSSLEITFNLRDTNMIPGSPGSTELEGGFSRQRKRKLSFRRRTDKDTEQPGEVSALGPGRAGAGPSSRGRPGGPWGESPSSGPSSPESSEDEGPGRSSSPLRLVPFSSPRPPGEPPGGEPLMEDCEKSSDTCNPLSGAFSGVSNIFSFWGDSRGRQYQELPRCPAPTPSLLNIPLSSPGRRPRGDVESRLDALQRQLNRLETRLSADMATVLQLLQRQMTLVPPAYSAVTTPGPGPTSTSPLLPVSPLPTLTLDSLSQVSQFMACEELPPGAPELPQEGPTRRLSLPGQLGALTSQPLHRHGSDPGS

| Compound | hERG current change (%, negative = inhibition) at 1uM |
| --- | --- |
| Cn1c(N=Nc2ccccc2)nc2ccccc21 | 9.02% |
| Cc1ccc(C)c(OCCCN2CCNCC2)c1.Cl | 21% |
| Cc1cc(=O)c2ccc3ccccc3c2[nH]1 | 9.29% |
| COn1c(-c2ccc(C)cc2)nc2ncccc21 | 16.5% |
| O=C(COC(=O)c1cncc(Br)c1)Nc1nnc(-c2ccccc2)o1 | 11.3% |
| CC(C)(C)OC(=O)N1CCN(C(=O)[C@H](Cc2ccc(O)cc2)n2cc(CCO)nn2)CC1 | 12.7% |
| Cc1ccc(NC(=O)C2CCCN(S(=O)(=O)c3ccc4[nH]c(=O)ccc4c3)C2)nc1 (stereo not shown) | 6.21% |
| COc1ccc(C2CC(c3ccccc3)n3nnnc3N2)cc1 (stereo not shown) | 15.1% |
| Cc1ccc(Cn2c(=N)n(CC(O)COc3ccccc3)c3ccccc32)cc1.Cl (stereo not shown) | -36.1% |
| CCN(Cc1nc2ccccc2c(=O)[nH]1)C(=O)c1cccc(S(=O)(=O)N2CCc3ccccc32)c1 | 3.53% |
| CNc1nc(N)c([N+](=O)[O-])c(Nc2ccccc2OC)n1 | 14.1% |
| Oc1c(Br)cc(Br)cc1Oc1ccc(Br)cc1Br | 12.6% |
| CCOC(=O)c1c(NC(=S)Nc2ccccc2C)sc2c1CCC2 | 12.5% |
| COc1ccc(/C=N\N=C(N)N)cc1.O=[N+]([O-])O | 7.04% |
| COC(=O)c1cc(NC(=O)CSc2nnc(N)s2)ccc1Cl | 13.6% |
| Cc1cc(C)cc(OCC(O)CN2CC(C)OC(C)C2)c1.Cl (stereo not shown) | 8.71% |
| CC1(C)Cc2c(sc(NC(=O)C(=O)N3CCN(CCO)CC3)c2C(N)=O)CO1 | 11.3% |
| CCS(=O)(=O)c1ccc(O)c(NC(=O)/C=C/c2ccccc2)c1 | 8.63% |
| CC1=C(C)CC(C(=O)NCc2c(F)cccc2Cl)C(C(=O)O)C1 (stereo not shown) | 16.3% |
| S=c1[nH]nc(COc2ccccc2)n1/N=C/c1ccncc1 | 12.8% |

| Compound | hERG current change (%, negative = inhibition) at 1uM |
| --- | --- |
| Cc1cc(C)cc(-n2nnc(C(=O)NCc3ccccc3)c2N)c1 | 5.79% |
| COc1ccccc1NS(=O)(=O)c1cccc(C(=O)NC2CCN(Cc3ccccc3)CC2)c1 | -17.1% |
| [N-]=[N+]=CC(=O)OC[C@H](N)C(=O)O | 11.6% |
| CCN1CCN(Cc2ccc(NC(=O)c3cc(NC(=O)c4cc5cccc(OC)c5o4)cc(OC)c3)cc2C(F)(F)F)CC1 | 17.6% |
| COc1ccc(/C=C2\N=C3CCCN3C2=O)cc1 | 7.43% |
| COc1ccccc1C(=O)NCCCN1CCCC1=O | 5.92% |
| O=C(CN1CCC(O)(c2ccc3c(c2)OCO3)CC1)NC1CCCCC1 | 14.3% |
| CCCNC(=O)C1CC(c2cccc(F)c2)=NO1 (stereo not shown) | 2.85% |
| CC1CCN(C(=S)Nc2ccc(F)cc2)CC1 | 9.94% |
| Cc1cccc(-c2nc(CSc3nc4c(c(=O)[nH]3)CCC4)c(C)o2)c1 | 16.3% |
| O=C(CCc1ccccc1)Nc1ccc(F)c([N+](=O)[O-])c1 | 14.5% |
| CCOC(=O)C1=NOC2COC3(CCN(c4ncccn4)CC3)OCC12 (stereo not shown) | 11.4% |
| COc1ccccc1N(C)S(=O)(=O)c1ccc(C(=O)OCC(=O)N(C(C)C)C(C)C)cc1 | -8.91% |
| NS(=O)(=O)c1ccc(CCNC(=O)C(=O)C2C(=O)Nc3ccccc32)cc1 (stereo not shown) | 4.9% |
| CCn1c(-c2ccncc2)n[nH]c1=S | 11.2% |
| CC(C)(C)CC(=O)Nc1cccc(-c2cn3cccnc3n2)c1 | -0.0164% |
| CCOC(=O)c1sc2nc(SC)nc(-c3ccc(Cl)cc3)c2c1N | 14.2% |
| O=C(CSC1=NS(=O)(=O)c2ccccc2N1)Nc1nccs1 | 9.95% |
| S=C(NC1CCCCC1)N1CCCCC1 | 14.8% |
| CC(C)Nc1nnc(SC(C)C(=O)NCc2ccc3c(c2)OCO3)s1 (stereo not shown) | 12.8% |

| Compound | hERG current change (%, negative = inhibition) at 1uM |
| --- | --- |
| COc1cccc(OCC(O)CN2CCN(c3ccccc3)CC2)c1 (stereo not shown) | -3.86% |
| CCOC(=O)N1CCN(c2cc(=O)n(-c3cccc(C)c3)c(=O)[nH]2)CC1 | 4.66% |
| COc1ccc(CN2CCN(C(=O)CCC(=O)Nc3nnc(C4CCCCC4)s3)CC2)cc1F | -1.35% |
| OCCNc1nc(Cl)nc(NCc2ccco2)n1 | 8.41% |
| O=C(Cn1cnc2ccccc2c1=O)Nc1nnc(SCc2ccc(Cl)cc2)s1 | 11.2% |
| C=CCn1cccc(C(=O)Nc2ccc(N(C)C)cc2)c1=O | 9.5% |
| CN(c1ccccc1)S(=O)(=O)c1cccc(NC(=O)c2cc3ccccc3oc2=O)c1 | 7.27% |
| Cc1ccc(-c2csc3nc4c5ccccc5c(NCCCN(C)C)nn4c(=O)c23)cc1 | -47.9% |
| CCCNC(=O)CN(c1ccc(F)cc1)S(=O)(=O)c1ccc2c(c1)OCCO2 | 9.39% |
| O=C1CC(c2ccc3c(c2)OCO3)c2cc3c(cc2N1)OCO3 (stereo not shown) | 1.34% |
| Cc1cc(C(=O)N/N=C/c2cccnc2)cs1 | 15.2% |
| COC(=O)c1ccc(C(NC(=O)OCc2ccccc2)/C(F)=C/[C@@H](C)C(=O)O)cc1 (stereo partly shown) | 8.52% |
| CC(=O)[C@@]1(O)C(C)CC2C3C=C(C)C4=Cc5c(cnn5-c5ccccc5)C[C@]4(C)C3C(O)C[C@@]21C (stereo partly shown) | 10.3% |
| COc1ccccc1Nc1nc2ccccc2[nH]1 | -3.17% |
| COC(=O)C(CCSC)NC(=O)c1cccc([N+](=O)[O-])c1 (stereo not shown) | -0.729% |
| Cc1ccc(-n2cc3c(=O)n(C)c(=O)n(C)c3c2)cc1C | 5.75% |
| NNC(=O)c1cccc(Cn2cc(Br)c([N+](=O)[O-])n2)c1 | 7.76% |
| O=[N+]([O-])c1ccccc1/C=N/OCc1ccccc1 | 22.3% |
